Measurements from PubChem BioAssay AID463173 (ICCB-Longwood Screening Facility, Harvard Medical School, 2010).
Out of some 52,000 compounds screened, about 4,300 (8.3%) were called active. Rule as the data show it: active = survival mostly below about 52% (no sharp cut-off); inactive = mostly above about 56%. Some of the results follow.

These compounds were tested on DeltatarO mutant (assay: growth inhibition of S. aureus wild type versus tarO mutant, primary screen, teichoic acid synthesis inhibitors, RN4220, OD600 (AID 463173)). Settings: OD600, 18 h, stronger effect = lower value, screened at 18.75 µg/mL (by protocol).
COc1ccc(CC(=O)N2CCc3cc(OC)c(OC)cc3C2COc2ccc(F)cc2)cc1 (stereo unspecified) was tested, and the survival was inactive: 67%.
For c1ccc2[nH]c(CSc3nnnn3C3CCCCC3)nc2c1, the survival was inactive: 95%.
COc1cc2c(cc1OC)C(c1cccc(Cl)c1)CC(=O)N2 (stereo unspecified) was tested, and the survival was inactive: 63%.
For COc1ccc(N2CCN(S(=O)(=O)c3ccc(F)c(C(=O)Nc4ccccc4Cl)c3)CC2)cc1, the survival was inactive: 96%.
For Cn1nc(-c2ccccc2F)c2cc(C(=O)NCc3ccccc3Cl)sc21, the survival was active: 56%.
For CCn1cc(C(=O)O)c(=O)c2cc(F)c(N3CCN(C(=O)c4ccccc4F)CC3)cc21, the survival was active: 3%.
In the case of CC(=O)Nc1ccc(NC(=O)c2nc(S(=O)(=O)Cc3ccc(F)cc3)ncc2Cl)cc1, the survival is reported as active: 32%.
With COc1cccc(CNC(=O)c2cnc3c(-c4ccc(F)cc4)c(C)nn3c2C)c1 the survival was inactive: 124%.
CCN(C(=O)c1cn(-c2cccc(OC)c2)c(=O)c2ccccc12)c1ccccc1C was tested, and the survival was inactive: 62%.
In the case of c1ccc(-c2nc(-c3cccnc3)no2)cc1, the survival is reported as inactive: 98%.
In the case of Cc1ccc(C)c(NC(=O)CSc2nccn2-c2cccc(C)c2C)c1, the survival is reported as inactive: 74%.
For COc1ccc(C(=O)Nc2ccccc2-c2nc3ccccc3s2)cc1OC, the survival was active: 7%.
For CC1CCCN(C(=O)CN2CCN(C(=O)c3ccco3)CC2)C1 (stereo unspecified), the survival was inactive: 85%.
Cc1ccc(OCCSc2nc(-c3ccccc3C)nc3cc(=O)[nH]n23)cc1Cl was tested, and the survival was inactive: 106%.
COc1ccccc1N1CCN(c2ncnc3c2c(-c2ccccc2)cn3-c2cccc(Cl)c2)CC1 was tested, and the survival was inactive: 94%.
In the case of CCc1nn(C(CC)C(=O)NCc2ccc(OC)c(OC)c2)c(=O)c2cc3oc(C)cc3n12 (stereo unspecified), the survival is reported as inactive: 85%.
With Cc1nn(-c2nc(-c3ccccc3)cc(C(F)(F)F)n2)c(C)c1Cl the survival was active: 5%.
For CC(C)Oc1ccc(NC(=O)C2COc3ccccc3O2)cc1 (stereo unspecified), the survival was inactive: 103%.
For c1ccc2c(c1)ncn2CCn1cnc2ccccc21, the survival was inactive: 100%.
With CCCCNC(=O)c1cccc(NC(=O)c2nsc3ccccc23)c1 the survival was inactive: 80%.
O=C(c1cc2ccccc2oc1=O)N1CCCCCC1 was tested, and the survival was inactive: 91%.
In the case of COc1cccc(OC)c1C(=O)NCCc1sc(-c2cccc(F)c2)nc1C, the survival is reported as inactive: 69%.
CCOc1ccc2c(c1)c(=O)c(C(=O)c1ccc3c(c1)OCO3)cn2Cc1ccc(F)cc1 was tested, and the survival was inactive: 98%.
Cc1ccc(NC(=O)CSc2nc(=O)cc(N)n2-c2ccccc2)cc1 was tested, and the survival was inactive: 87%.
For CC1CCN(C(=O)CN(CCc2ccccc2)S(C)(=O)=O)CC1, the survival was inactive: 71%.
With CCOC(=O)N1CCc2c(sc3c2C(=O)NC(c2ccc(N(C)C)cc2)N3)C1 (stereo unspecified) the survival was inactive: 55%.
